The source of these data is patent US20190169308A1 (ALLIGATOR BIOSCIENCE, published 2019).

The chains are these.
B1: 1210-1618.m2.m7.m17 (bispecific antibody, human IgG1, kappa)
heavy: [no letters for about 100 residues]YYGGYYSAWMDYWGQGTLVTVSS[no letters for human IgG1 constant region with changes]EAAKEAAKGGGGSDIQMTQSPSSLSASVGDRVTITCRASQSISSYLNWYQQKPGKAPKLLIYAASSLQSGVPSRFSGSGSGTDFTLTISSLQPEDFATYYCQQYYDNLPTFGQGTKLEIKGGGGSGGGGSGGGGSEVQLLESGGGLVQPGGSLRLSCAASGFTFSYGSMYWVRQAPGKGLEWVSSISSGSGSTYYADSVKGRFTISRDNSKNTLYLQMNSLRAEDTAVYYCARSSYYGSYYSIDYWGQGTLVTVSS
light: DIQMTQSPSSLSASVGDRVTITCRASQSISSYLNWYQQKPGKAPKLLIYAASSLQSGVPSRFSGSGSGTDFTLTISSLQPEDFATYYCQQTYGYLHTFGQGTKLEIKRTVAAPSVFIFPPSDEQLKSGTASVVCLLNNFYPREAKVQWKVDNALQSGNSQESVTEQDSKDSTYSLSSTLTLSKADYEKHKVYACEVTHQGLSSPVTKSFNRGEC
notes: scFv in VL-VH order
B2: 1618-1210.m2.m16 (bispecific antibody, human IgG1, kappa)
heavy: EVQLLESGGGLVQPGGSLRLSCAASGFTFSYGSMYWVRQAPGKGLEWVSSISSGSGSTYYADSVKGRFTISRDNSKNTLYLQMNSLRAEDTAVYYCARSSYYGSYYSIDYWGQGTLVTVSS[no letters for about 450 residues with a human IgG1 Fc]YYGGYYSAWMDYWGQGTLVTVSSGGGGSGGGGSGGGGSDIQMTQSPSSLSASVGDRVTITCRASQSISSYLNWYQQKPGKAPKLLIYAASSLQSGVPSRFSGSGSGTDFTLTISSLQPEDFATYYCQQTYGYLHTFGQGTKLEIK
light: DIQMTQSPSSLSASVGDRVTITCRASQSISSYLNWYQQKPGKAPKLLIYAASSLQSGVPSRFSGSGSGTDFTLTISSLQPEDFATYYCQQYYDNLPTFGQGTKLEIKRTVAAPSVFIFPPSDEQLKSGTASVVCLLNNFYPREAKVQWKVDNALQSGNSQESVTEQDSKDSTYSLSSTLTLSKADYEKHKVYACEVTHQGLSSPVTKSFNRGEC
B3: 1618-1210.m2.m7.m17 (bispecific antibody, human IgG1, kappa)
heavy: EVQLLESGGGLVQPGGSLRLSCAASGFTFSYGSMYWVRQAPGKGLEWVSSISSGSGSTYYADSVKGRFTISRDNSKNTLYLQMNSLRAEDTAVYYCARSSYYGSYYSIDYWGQGTLVTVSS[no letters for human IgG1 constant region with changes]EAAKEAAKGGGGSDIQMTQSPSSLSASVGDRVTITCRASQSISSYLNWYQQKPGKAPKLLIYAASSLQSGVPSRFSGSGSGTDFTLTISSLQPEDFATYYCQQTYGYLHTFGQGTKLEIKGGGGSGGGGSGGGGS[no letters for about 100 residues]YYGGYYSAWMDYWGQGTLVTVSS
light: DIQMTQSPSSLSASVGDRVTITCRASQSISSYLNWYQQKPGKAPKLLIYAASSLQSGVPSRFSGSGSGTDFTLTISSLQPEDFATYYCQQYYDNLPTFGQGTKLEIKRTVAAPSVFIFPPSDEQLKSGTASVVCLLNNFYPREAKVQWKVDNALQSGNSQESVTEQDSKDSTYSLSSTLTLSKADYEKHKVYACEVTHQGLSSPVTKSFNRGEC
notes: scFv in VL-VH order
B4: 1210-1618.m2.m7.m18 (bispecific antibody, human IgG1, kappa)
heavy: [no letters for about 100 residues]YYGGYYSAWMDYWGQGTLVTVSS[no letters for human IgG1 constant region with changes]EAAKEAAKDIQMTQSPSSLSASVGDRVTITCRASQSISSYLNWYQQKPGKAPKLLIYAASSLQSGVPSRFSGSGSGTDFTLTISSLQPEDFATYYCQQYYDNLPTFGQGTKLEIKGGGGSGGGGSGGGGSEVQLLESGGGLVQPGGSLRLSCAASGFTFSYGSMYWVRQAPGKGLEWVSSISSGSGSTYYADSVKGRFTISRDNSKNTLYLQMNSLRAEDTAVYYCARSSYYGSYYSIDYWGQGTLVTVSS
light: DIQMTQSPSSLSASVGDRVTITCRASQSISSYLNWYQQKPGKAPKLLIYAASSLQSGVPSRFSGSGSGTDFTLTISSLQPEDFATYYCQQTYGYLHTFGQGTKLEIKRTVAAPSVFIFPPSDEQLKSGTASVVCLLNNFYPREAKVQWKVDNALQSGNSQESVTEQDSKDSTYSLSSTLTLSKADYEKHKVYACEVTHQGLSSPVTKSFNRGEC
notes: scFv in VL-VH order
B5: 1618-1210.m2.m7.m16 (bispecific antibody, human IgG1, kappa)
heavy: EVQLLESGGGLVQPGGSLRLSCAASGFTFSYGSMYWVRQAPGKGLEWVSSISSGSGSTYYADSVKGRFTISRDNSKNTLYLQMNSLRAEDTAVYYCARSSYYGSYYSIDYWGQGTLVTVSS[no letters for human IgG1 constant region with changes]GGGGSDIQMTQSPSSLSASVGDRVTITCRASQSISSYLNWYQQKPGKAPKLLIYAASSLQSGVPSRFSGSGSGTDFTLTISSLQPEDFATYYCQQTYGYLHTFGQGTKLEIKGGGGSGGGGSGGGGS[no letters for about 100 residues]YYGGYYSAWMDYWGQGTLVTVSS
light: DIQMTQSPSSLSASVGDRVTITCRASQSISSYLNWYQQKPGKAPKLLIYAASSLQSGVPSRFSGSGSGTDFTLTISSLQPEDFATYYCQQYYDNLPTFGQGTKLEIKRTVAAPSVFIFPPSDEQLKSGTASVVCLLNNFYPREAKVQWKVDNALQSGNSQESVTEQDSKDSTYSLSSTLTLSKADYEKHKVYACEVTHQGLSSPVTKSFNRGEC
notes: scFv in VL-VH order
B6: 1618-1210.m2.m7.m18 (bispecific antibody, human IgG1, kappa)
heavy: EVQLLESGGGLVQPGGSLRLSCAASGFTFSYGSMYWVRQAPGKGLEWVSSISSGSGSTYYADSVKGRFTISRDNSKNTLYLQMNSLRAEDTAVYYCARSSYYGSYYSIDYWGQGTLVTVSS[no letters for human IgG1 constant region with changes]EAAKEAAKDIQMTQSPSSLSASVGDRVTITCRASQSISSYLNWYQQKPGKAPKLLIYAASSLQSGVPSRFSGSGSGTDFTLTISSLQPEDFATYYCQQTYGYLHTFGQGTKLEIKGGGGSGGGGSGGGGS[no letters for about 100 residues]YYGGYYSAWMDYWGQGTLVTVSS
light: DIQMTQSPSSLSASVGDRVTITCRASQSISSYLNWYQQKPGKAPKLLIYAASSLQSGVPSRFSGSGSGTDFTLTISSLQPEDFATYYCQQYYDNLPTFGQGTKLEIKRTVAAPSVFIFPPSDEQLKSGTASVVCLLNNFYPREAKVQWKVDNALQSGNSQESVTEQDSKDSTYSLSSTLTLSKADYEKHKVYACEVTHQGLSSPVTKSFNRGEC
notes: scFv in VL-VH order
B7: 1618-1210.m2.m7.m15 (bispecific antibody, human IgG1, kappa)
heavy: EVQLLESGGGLVQPGGSLRLSCAASGFTFSYGSMYWVRQAPGKGLEWVSSISSGSGSTYYADSVKGRFTISRDNSKNTLYLQMNSLRAEDTAVYYCARSSYYGSYYSIDYWGQGTLVTVSS[no letters for human IgG1 constant region with changes]THTCPPCPEPKSSDKDIQMTQSPSSLSASVGDRVTITCRASQSISSYLNWYQQKPGKAPKLLIYAASSLQSGVPSRFSGSGSGTDFTLTISSLQPEDFATYYCQQTYGYLHTFGQGTKLEIKGGGGSGGGGSGGGGS[no letters for about 100 residues]YYGGYYSAWMDYWGQGTLVTVSS
light: DIQMTQSPSSLSASVGDRVTITCRASQSISSYLNWYQQKPGKAPKLLIYAASSLQSGVPSRFSGSGSGTDFTLTISSLQPEDFATYYCQQYYDNLPTFGQGTKLEIKRTVAAPSVFIFPPSDEQLKSGTASVVCLLNNFYPREAKVQWKVDNALQSGNSQESVTEQDSKDSTYSLSSTLTLSKADYEKHKVYACEVTHQGLSSPVTKSFNRGEC
notes: scFv in VL-VH order
B8: 1618-1210.m2.m17 (bispecific antibody, human IgG1, kappa)
heavy: EVQLLESGGGLVQPGGSLRLSCAASGFTFSYGSMYWVRQAPGKGLEWVSSISSGSGSTYYADSVKGRFTISRDNSKNTLYLQMNSLRAEDTAVYYCARSSYYGSYYSIDYWGQGTLVTVSS[no letters for human IgG1 constant region with changes]EAAKEAAKGGGGS[no letters for about 100 residues]YYGGYYSAWMDYWGQGTLVTVSSGGGGSGGGGSGGGGSDIQMTQSPSSLSASVGDRVTITCRASQSISSYLNWYQQKPGKAPKLLIYAASSLQSGVPSRFSGSGSGTDFTLTISSLQPEDFATYYCQQTYGYLHTFGQGTKLEIK
light: DIQMTQSPSSLSASVGDRVTITCRASQSISSYLNWYQQKPGKAPKLLIYAASSLQSGVPSRFSGSGSGTDFTLTISSLQPEDFATYYCQQYYDNLPTFGQGTKLEIKRTVAAPSVFIFPPSDEQLKSGTASVVCLLNNFYPREAKVQWKVDNALQSGNSQESVTEQDSKDSTYSLSSTLTLSKADYEKHKVYACEVTHQGLSSPVTKSFNRGEC
B9: 1618-1210.m2.m15 (bispecific antibody, human IgG1, kappa)
heavy: EVQLLESGGGLVQPGGSLRLSCAASGFTFSYGSMYWVRQAPGKGLEWVSSISSGSGSTYYADSVKGRFTISRDNSKNTLYLQMNSLRAEDTAVYYCARSSYYGSYYSIDYWGQGTLVTVSS[no letters for human IgG1 constant region with changes]THTCPPCPEPKSSDK[no letters for about 100 residues]YYGGYYSAWMDYWGQGTLVTVSSGGGGSGGGGSGGGGSDIQMTQSPSSLSASVGDRVTITCRASQSISSYLNWYQQKPGKAPKLLIYAASSLQSGVPSRFSGSGSGTDFTLTISSLQPEDFATYYCQQTYGYLHTFGQGTKLEIK
light: DIQMTQSPSSLSASVGDRVTITCRASQSISSYLNWYQQKPGKAPKLLIYAASSLQSGVPSRFSGSGSGTDFTLTISSLQPEDFATYYCQQYYDNLPTFGQGTKLEIKRTVAAPSVFIFPPSDEQLKSGTASVVCLLNNFYPREAKVQWKVDNALQSGNSQESVTEQDSKDSTYSLSSTLTLSKADYEKHKVYACEVTHQGLSSPVTKSFNRGEC

The assay addresses T1, CD137-bio (Ancell #502-030) (human, UniProt Q07011 24-186, biotinylated).
T1 construct: detection reagent of the dual ELISA
T1 sequence (Q07011 24-186 limits assumed): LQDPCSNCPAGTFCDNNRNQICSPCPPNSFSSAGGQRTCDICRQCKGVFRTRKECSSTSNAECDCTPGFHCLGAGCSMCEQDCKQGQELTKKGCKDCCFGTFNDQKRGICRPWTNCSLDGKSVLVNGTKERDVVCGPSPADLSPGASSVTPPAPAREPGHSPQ
Description: dual ELISA: coated 5T4-Fc, detection with CD137-bio. How it is done: Bispecific binding to both targets, CD137 and 5T4, was evaluated using a standard ELISA protocol. Plates (#655074, Greiner Bio-One GmbH, Germany) were pre-coated with 0.5 μg/ml 5T4-Fc (obtained from Professor Peter Stern, University of Manchester) overnight. CD137-5T4 bsAb were diluted from 8 to 2×10⁻³ μg/ml in 1:4 dilutions and added in duplicates of 50 μl to each well. CD137-bio (Ancell #502-030) was used as detection antibody at 0.5 μg/ml and the binding was detected with Streptavidin-HRP (Pierce #21126). The ELISA was developed with SuperSignal ELISA PICO Chemiluminescent substrate (Thermo Scientific Pierce, Rockford, Ill. USA) during 2-10 minutes and read in an automated microplate based multi-detection reader (FLUOstar OPTIMA, Netherlands).
As for B1, the binding result is reported as “binds”.
With B2, the binding result is “binds”.
As to B3, the binding result is “binds”.
Take B4: the binding result is reported as “binds”.
Regarding B5, the binding result is listed as “binds”.
For B6 the value was “binds”; for B7, “binds”.
Regarding B8, the binding result is reported as “binds”.
As for B9, the binding result is “binds”.
